# Laboratory results reported in PubChem BioAssay AID588342 (National Center for Advancing Translational Sciences (NCATS), 2011).
# Out of some 360,000 compounds screened, about 25,000 (6.9%) were called active. Inconclusive means that the source gave no clear call. Such entries were picked first, then a sample of the others. Calls follow the shape of the dose curve; as a rule, active = well fitted inhibition curve with a large enough effect; inconclusive = small, poorly fitted or top-dose-only effect; inactive = flat fitted curve, though single readings scatter. Potencies beside an inconclusive call are fits to weak or partial responses and may not hold up.
# Target: Luciferin 4-monooxygenase (Photinus pyralis) (UniProt P08659)
# Chain of UniProt P08659 (P08659 whole entry, looked up): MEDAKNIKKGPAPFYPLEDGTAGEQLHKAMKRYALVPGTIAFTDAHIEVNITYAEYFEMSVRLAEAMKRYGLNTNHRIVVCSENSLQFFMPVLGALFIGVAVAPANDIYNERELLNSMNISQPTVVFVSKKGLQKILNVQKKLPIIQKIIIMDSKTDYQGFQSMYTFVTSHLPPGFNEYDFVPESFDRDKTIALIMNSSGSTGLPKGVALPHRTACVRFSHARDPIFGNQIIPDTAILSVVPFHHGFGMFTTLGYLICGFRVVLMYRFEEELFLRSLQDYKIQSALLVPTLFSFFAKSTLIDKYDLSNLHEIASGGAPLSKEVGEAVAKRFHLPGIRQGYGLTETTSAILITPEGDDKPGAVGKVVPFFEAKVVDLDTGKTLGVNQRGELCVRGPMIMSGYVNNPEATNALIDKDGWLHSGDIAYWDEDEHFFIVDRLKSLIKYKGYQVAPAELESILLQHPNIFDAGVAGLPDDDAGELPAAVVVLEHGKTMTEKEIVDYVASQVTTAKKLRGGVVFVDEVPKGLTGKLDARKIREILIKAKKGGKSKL
# Assay: qHTS profiling assay for firefly luciferase inhibitor/activator using purifed enzyme and Km concentrations of substrates (counterscreen for miR-21 project); also: nearly all actives have a fitted effect of over 55% in size;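 as to activity change, negative = inhibition: plate controls were vehicle for no effect and reference inhibitor for full effect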
# Conditions: purified FLuc, luminescence inhibition; activity change, negative = inhibition: at 57.5 µM (top of the series)
# Summary of the method: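 Biochemical qHTS of compounds, final roughly 60 µM downward over six points, against 10 nM purified firefly luciferase using Km concentrations of substrates (10 uM D-luciferin, 10 uM ATP) in Tris acetate pH 7.5 buffer; luminescence output.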
# Potency is read from the fitted curve at half-maximal effect; tags tell the direction and shape of the fitted curve.
Structure (SMILES),Potency,"activity change, negative = inhibition"
CCn1c(SCC(=O)O)nnc1-c1ccc2[nH]c(C)c(C)c2c1,"inconclusive: 23.9 µM [inhibitor, single point]",
CCN(CC)CCNC(=O)C1CCN(S(=O)(=O)c2c(C)noc2/C=C/c2ccccc2F)CC1,inactive,
CCN(CC)c1ccc2cc(-c3nnc(-c4ccncc4)o3)c(=O)oc2c1,"inconclusive: 15.1 µM [inhibitor, partial curve]",
Cn1c2ccccc2c(=O)c2ccc(C#Cc3ccc(N)cc3)cc21,"inconclusive: 12 µM [inhibitor, partial curve]",
O=C(C1CCCN1S(=O)(=O)c1ccc(Cl)cc1)N1CCCCC1 (stereo unspecified),,inactive: 0.901%
O=C(Nc1cccnc1)c1ccc(COc2ccccc2Br)cc1,"inconclusive: 16.9 µM [inhibitor, partial curve, poor fit]",
COc1ccc(-c2nc(-c3ccc(NC(=O)c4ccc(Br)o4)cc3)no2)cc1OC,"inconclusive: 26.9 µM [inhibitor, single point]",
CCOc1ccc(NC(=O)NC(C)c2c(-n3cccc3)sc(C)c2C)cc1 (stereo unspecified),,inactive: 4.02%
O=C(Cn1nc(N2CCN(c3ccccc3)CC2)ccc1=O)NCc1cccc(Cl)c1,,inactive: -7.21%
Cc1cccc(OCCCCn2nnc3sc4c(c3c2=O)CCC(C)C4)c1 (stereo unspecified),,inactive: 1.34%
CCOc1ccccc1CNC(=O)CN1C(=O)CCCc2ccccc21,,inactive: -2.24%
Cc1ccc(-n2ncc3c(NCCc4ccccc4)ncnc32)cc1C,"inconclusive: 23.9 µM [inhibitor, partial curve]",
CCn1nccc1C(=O)Nc1ccc(Cl)c(Cl)c1,active: 21.3 µM,
CCC(=O)N1CCc2cc(S(=O)(=O)CCC(=O)N3CCN(c4ccc(F)cc4)CC3)ccc21,,inactive: -0.89%
CCN(CC)c1ccc(NC(=O)Nc2cccc(C(C)=O)c2)cc1,active: 1.69 µM,
O=C(c1ccc(=O)oc1)N1CCCc2ccccc21,"inconclusive: 26.9 µM [inhibitor, single point]",
CCOC(=O)c1c(C=O)c2sc(C)cc2n1C,"inconclusive: 37.9 µM [inhibitor, partial curve, poor fit]",
CCCN1Cc2cccc(C(=O)Nc3ccc4c(c3)OCO4)c2C1=O,"inconclusive: 6.01 µM [inhibitor, partial curve, poor fit]",
NC(=O)c1cc(-c2ccncc2)nc2ccc(Cl)cc12,"inconclusive: 0.012 µM [inhibitor, partial curve, poor fit]",
COc1cc(CNc2ccc3[nH]c(=O)[nH]c3c2)cc(Br)c1OCC(=O)NC(C)(C)C,"inconclusive: 37.9 µM [inhibitor, partial curve, poor fit]",
CCOc1ccc(N=Nc2c(C)noc2C)cc1,"inconclusive: 26.9 µM [inhibitor, partial curve, poor fit]",
COc1ccc(-c2ncc3ccccn23)cc1OC,"inconclusive: 16.9 µM [inhibitor, partial curve]",
Oc1c(C(c2ccccc2)N2CCC3(CC2)OCCO3)sc2nc(-c3ccco3)nn12 (stereo unspecified),,inactive: -11.3%
COc1ccc(-c2nc3c(c(SCC(=O)Nc4ccc(C(=O)O)cc4)n2)Cc2ccccc2O3)cc1,"inconclusive: 10.7 µM [inhibitor, partial curve, poor fit]",
COc1cccc(N2CC(O)=C(c3nc4ccccc4c(=O)[nH]3)C2=N)c1,"inconclusive: 37.9 µM [inhibitor, partial curve, poor fit]",
CC(=O)c1c(C)nc(-c2ccc(OCC(=O)Nc3cccc(C)c3C)cc2)n1O,"inconclusive: 7.57 µM [inhibitor, partial curve, poor fit]",

Structure (SMILES),Potency,"activity change, negative = inhibition"
O=C(NNC(=S)Nc1ccccc1)c1cccs1,"inconclusive: 12 µM [inhibitor, partial curve]",
CN1CCN(C(=S)Nc2ccc(Cl)cc2)CC1,"inconclusive: 26.9 µM [inhibitor, partial curve]",
Cc1ccc(C(=O)NCCc2ccccc2)cc1,active: 0.536 µM,
CN(C(=O)Nc1ccc(Cl)c(Cl)c1)c1ccccc1C(=O)O,"inconclusive: 37.9 µM [inhibitor, single point]",
O=C(Cc1ccc(Br)cc1)N1CCN(c2ccccc2O)CC1,"inconclusive: 37.9 µM [inhibitor, partial curve, poor fit]",
O=C(NCC1(c2ccccc2)CCCC1)c1ccccc1,,inactive: -2.12%
O=C(Nc1ccc(Cl)c(Cl)c1)c1ccc(Cl)c(Cl)c1,active: 12 µM,
COc1ccc(CCNC(=O)c2oc3ccc(OC)cc3c2C)cc1,"inconclusive: 21.3 µM [inhibitor, single point]",
CCC1CN(C(=O)Nc2ccc(C)cc2)c2cc(C)ccc2O1 (stereo unspecified),,inactive: -0.716%
COc1cccc(CNc2ccc3c(c2)CCC3)c1,"inconclusive: 30.1 µM [inhibitor, single point]",
COc1ccccc1/C=C/C(=O)c1ccc(NC(C)=O)cc1,active: 15.1 µM,
Cc1nc(C2COc3ccccc3O2)sc1C(=O)O (stereo unspecified),"inconclusive: 37.9 µM [inhibitor, single point]",
Cc1ccc(NC(=O)COC(=O)C2=COCCO2)cc1,"inconclusive: 26.9 µM [inhibitor, single point]",
Cc1ccc(NC(=O)c2nn(C)c3c2CS(=O)(=O)c2ccccc2-3)c(Cl)c1,"inconclusive: 23.9 µM [inhibitor, partial curve, poor fit]",
CC(C)CN=C(NS(=O)(=O)c1ccccc1)C(Cl)(Cl)Cl,,inactive: -2.79%
CCOC(=O)c1sc(NC(=O)CSc2n[nH]c(-c3ccncc3)n2)c(C#N)c1C,,inactive: -0.18%
C#CC(C)(C)NS(=O)(=O)c1cc(-c2nnc(Nc3ccc(C)cc3)c3ccccc23)ccc1C,active: 2.69 µM,
C=CCOc1ccc(/C=N/Nc2ccccn2)cc1OC,active: 5.36 µM,
C/C(=N\Nc1ccccn1)c1ccc(OC(F)F)cc1,active: 15.1 µM,
COc1cc(C(=O)NCCOc2ccccc2C)c(Br)c(OC)c1OC,,inactive: 3.79%
CN(Cc1ccccc1)C(=O)CN1C(=O)CSc2ccc(S(=O)(=O)N3CCOCC3)cc21,,inactive: 0.294%
CC1CCCCN1C(=O)COc1ccc(NC(=O)c2ccco2)cc1 (stereo unspecified),"inconclusive: 21.3 µM [inhibitor, partial curve]",
COc1ccc(N(C(=O)/C=C\C(=O)Nc2ccc(Cl)cc2)C(C(=O)NCc2ccco2)c2ccc(C)cc2)cc1 (stereo unspecified),,inactive: -8.86%
O=C(c1noc2c1CCCCC2)N1CCN(c2ccc(Cl)cc2)CC1,,inactive: 4.37%
O=C(c1ccco1)N1N=C(c2ccc(Cl)cc2)CC1c1ccco1 (stereo unspecified),"inconclusive: 37.9 µM [inhibitor, single point]",
Cc1ccc2c(c1)C(=O)C(=O)N2CC1COc2ccccc2O1 (stereo unspecified),"inconclusive: 19 µM [inhibitor, single point]",

Structure (SMILES),Potency,"activity change, negative = inhibition"
COc1ccccc1NC(=O)Cn1c(=O)n(Cc2ccc3c(c2)OCO3)c(=O)c2oc3ccccc3c21,,inactive: -1.77%
CCOC(=O)n1cc(C(=O)c2ccccc2O)cn1,"inconclusive: 30.1 µM [inhibitor, single point]",
Cc1ccc(S(=O)(=O)c2nc(-c3cccs3)oc2N2CCCCC2)cc1,,inactive: -14%
CC(=O)c1sc(-c2ccc(Cl)cc2)cc1N,"inconclusive: 23.9 µM [inhibitor, single point]",
Cc1cccc(NC(=O)C(=O)NNC(=O)c2ccc(C(C)(C)C)cc2)c1,,inactive: -19.5%
Cc1nnc(NC2=NCCC2)o1,,inactive: -0.182%
O=C(NCc1ccco1)c1cc(-c2ccccc2)nc2ccccc12,"inconclusive: 30.1 µM [inhibitor, single point]",
CC(=O)c1ccc(C(=O)N2CCC(n3nccc3NC(=O)C3CC3)CC2)cc1,,inactive: 6.73%
CCC1C/C(=C/c2ccco2)C(=O)/C(=C/c2ccco2)C1 (stereo unspecified),,inactive: -7.59%
CCOc1ccc(-c2cc(CCCC(=O)NCc3ccco3)no2)cc1,active: 3.38 µM,
Cc1cccc(NC(=O)C2CCN(C(=O)c3ccc(F)cc3)CC2)n1,,inactive: 3.48%
O=C1CN(C(=O)COC(=O)COc2ccc3c(c2)CCC3)c2ccccc2N1,"inconclusive: 19 µM [inhibitor, partial curve]",
CCCc1cc2c(=O)c(-c3nc4ccccc4s3)c(COCC(=O)O)oc2cc1O,active: 9.53 µM,
CC(=O)C1=C(c2ccc(Br)cc2)C(=O)c2ccccc2C1=O,,inactive: 4.8%
Cc1c(Cl)cccc1NS(=O)(=O)c1ccc2[nH]cc(C(=O)NC3CCCC3)c(=O)c2c1,"inconclusive: 12 µM [inhibitor, partial curve]",
CN1CCN(c2ccc(NC(=O)CSc3ccccc3)cc2F)CC1,active: 10.7 µM,
COc1ccnc(N=CNOCc2ccc(F)cc2Cl)c1C#N,"inconclusive: 10.7 µM [inhibitor, partial curve, poor fit]",
Cc1ccc(CCN2CC(C(=O)NCCCN3CCCCC3)CC2=O)cc1 (stereo unspecified),,inactive: 0.463%
Cc1cc(/C=C/C(=O)O)c(C)n1-c1ccc(Cl)cc1,"inconclusive: 30.1 µM [inhibitor, single point]",
COc1ccc(N(CC(=O)NCCSc2ccccn2)S(C)(=O)=O)cc1,,inactive: 5.65%
CC(C)CCOc1ccc(C2=NNC(=O)CC2)cc1,"inconclusive: 19 µM [inhibitor, partial curve]",
Cc1ccc(NC(=O)CCn2c(=O)c3cccn3c3ccccc32)c(Cl)c1,"inconclusive: 26.9 µM [inhibitor, partial curve, poor fit]",
Cc1nc2ccccn2c1-c1csc(Nc2ccc(C(=O)O)cc2)n1,"inconclusive: 37.9 µM [inhibitor, partial curve, poor fit]",
CN(c1ccc(C(=O)NCCC2=CCCCC2)cc1)S(C)(=O)=O,active: 9.53 µM,
